Key:
[1] = Expression analysis (protein yield) of N-terminal fusion format split antibodies (Example 10); conditions: HEK cell expression; for Yield after Prot A: after Protein A affinity step; for Final Yield: after final purification
Source text: In a first set, the VH and VL domain of the humanized DOTAM binder contained an N-terminal Q for the VH domain and an N-terminal A for the VL domain. In the second set, they contained an N-terminal G and S, respectively. It was observed that in this format, the antibody containing the VH domain of the humanized DOTAM binder was not successfully expressed with an N-terminal G but was successfully expressed with an N-terminal Q. G is not a typical residue at this position in a VH domain. An antibody containing the VL domain was successfully expressed with either an N-terminal S or A residue, both of which are typical residues at this position in a VL domain.

[2] = Biacore set-up 1 (Example 11): biotinylated Pb-DOTAM binding to captured N-terminal fusion hemibodies, read-out with monoStreptavidin; conditions: 30 nM hemibody captured; 50 nM DOTAM, 200 nM monoStreptavidin; relative to reference CEA-DOTAM (PRIT-0213); FIG. 29, 30
Protocol: Two experimental set-ups were used. • 1. In a first experimental set-up, individual TA-split-DOTAM-VH and TA-split-DOTAM-VL antibodies were first captured on a chip using an immobilized anti-hFab, and then binding of the two enantiomers of biotinylated Pb-DOTAM was assessed.
The experiments were performed with Biacore T200 at 25° C. measuring temperature. All Biacore T200 experiments were carried out in HBS-P+(GE Healthcare, Br-1008-27) pH 7,4 running buffer. The 30 nM solution in HBS-P+ of Prodrug_A or Prodrug_B was injected over the anti hFc (GE Healthcare, BR-1008-39) CM5 Chip surface (10 μl/min, 60 sec). After high density capturing of Prodrug A or B solution the 50 nM DOTAM solution (10 μl/min, 120 sec) and then the 200 nM monoStreptavidin solution (10 μl/min, 90 sec) was injected. The dissociation was monitored for 120 sec at a flow rate of 10 μl/min. For new cycle the surface was regenerated by using of 3M MgCl2 and 60 sec regeneration time with. The relative response determination was evaluated by T200 evaluation software.

Molecule	Yield after Prot A [1]	Final Yield [1]	DOTAM binding (relative response) [2]
P1AG1806: TA-split-DOTAM-VH hemibody having an N-terminal fusion format as shown in FIG. 25C (antibody) heavy: QVQLVQSGAEVKKPGASVKVSCKASGYTFTEFGMNWVRQAPGQGLEWMGWINTKTGEATYVEEFKGRVTFTTDTSTSTAYMELRSLRSDDTAVYYCARWDFAYYVEAMDYWGQGTTVTVSSASTKGPSVFPLAPSSKSTSGGTAALGCLVKDYFPEPVTVSWNSGALTSGVHTFPAVLQSSGLYSLSSVVTVPSSSLGTQTYICNVNHKPSNTKVDKKV[human IgG1 Fc with changes skipped] QVTLKESGPVLVKPTETLTLTCTVSGFSLSTYSMSWIRQPPGKALEWLGFIGSRGDTYYASWAKGRLTISKDTSKSQVVLTMTNMDPVDTATYYCARERDPYGGGAYPPHLWGRGTLVTVSSGGGGSGGGGSGGGGSGGSGGDKTHTCPPCPAPEAAGGPSVFLFPPKPKDTLMISRTPEVTCVVVDVSHEDPEVKFNWYVDGVEVHNAKTKPREEQYNSTYRVVSVLTVLHQDWLNGKEYKCKVSNKALGAPIEKTISKAKGQPREPQVCTLPPSRDELTKNQVSLSCAVKGFYPSDIAVEWESNGQPENNYKTTPPVLDSDGSFFLVSKLTVDKSRWQQGNVFSCSVMHEALHNHYTQKSLSLSPGK light: DIQMTQSPSSLSASVGDRVTITCKASAAVGTYVAWYQQKPGKAPKLLIYSASYRKRGVPSRFSGSGSGTDFTLTISSLQPEDFATYYCHQYYTYPLFTFGQGTKLEIKRTVAAPSVFIFPPSDEQLKSGTASVVCLLNNFYPREAKVQWKVDNALQSGNSQESVTEQDSKDSTYSLSSTLTLSKADYEKHKVYACEVTHQGLSSPVTKSFNRGEC	88.4 mg/L	13.9 mg/L	No DOTAM interaction
P1AG1807: TA-split-DOTAM-VL hemibody having an N-terminal fusion format as shown in FIG. 25C (antibody) heavy: QVQLVQSGAEVKKPGASVKVSCKASGYTFTEFGMNWVRQAPGQGLEWMGWINTKTGEATYVEEFKGRVTFTTDTSTSTAYMELRSLRSDDTAVYYCARWDFAYYVEAMDYWGQGTTVTVSSASTKGPSVFPLAPSSKSTSGGTAALGCLVKDYFPEPVTVSWNSGALTSGVHTFPAVLQSSGLYSLSSVVTVPSSSLGTQTYICNVNHKPSNTKVDKKV[human IgG1 Fc with changes skipped] AIQMTQSPSSLSASVGDRVTITCQSSHSVYSDNDLAWYQQKPGKAPKLLIYQASKLASGVPSRFSGSGSGTDFTLTISSLQPEDFATYYCLGGYDDESDTYGFGGGTKVEIKGGGGSGGGGSGGGGSGGSGGDKTHTCPPCPAPEAAGGPSVFLFPPKPKDTLMISRTPEVTCVVVDVSHEDPEVKFNWYVDGVEVHNAKTKPREEQYNSTYRVVSVLTVLHQDWLNGKEYKCKVSNKALGAPIEKTISKAKGQPREPQVCTLPPSRDELTKNQVSLSCAVKGFYPSDIAVEWESNGQPENNYKTTPPVLDSDGSFFLVSKLTVDKSRWQQGNVFSCSVMHEALHNHYTQKSLSLSPGK light: DIQMTQSPSSLSASVGDRVTITCKASAAVGTYVAWYQQKPGKAPKLLIYSASYRKRGVPSRFSGSGSGTDFTLTISSLQPEDFATYYCHQYYTYPLFTFGQGTKLEIKRTVAAPSVFIFPPSDEQLKSGTASVVCLLNNFYPREAKVQWKVDNALQSGNSQESVTEQDSKDSTYSLSSTLTLSKADYEKHKVYACEVTHQGLSSPVTKSFNRGEC	200 mg/L	65.6 mg/L	No DOTAM interaction

From patent US20230272116A1, “ANTIBODIES WHICH BIND TO CANCER CELLS AND TARGET RADIONUCLIDES TO SAID CELLS” (Hoffmann-La Roche Inc., priority 2020, published 2023)
